In a collection of fitness landscapes (doi:10.1016/j.celrep.2020.107928):
In all, about 81,000 sequences were measured (“one-hybrid fitness for binding NBS DNA”: median about -0.1, highest 2% from about 0.36 on). The list shows a part of the results.

B1: Caulobacter ParB omega fusion; a variant is named by its letters at X, in order, B8GW30 (parent)
chain: MESVVVGEPGMSEGRRGLGRGLSALLGEVDAAPAQAPGEQLGGSREAPIEILQRNPDQPRRTFREEDLEDLSNSIREKGVLQPILVRPSPDTAGEYQIVAGERAWRAAQRAGLKTVPIMVRELDDLAVLEIGIIENVQRADLNVLEEALSYKVLMEKFERTQENIAQTIGKSXSHVANXMRLLXLPDEVQSYLVSGELTAXHARAIAAAADPVALAKQIIEGGLSVRETEALARKAPNLSAGKSKGGRPPRVKDTDTQALESDLSSVLGLDVSIDHRGSTGTLTITYATLEQLDDLCNRLTRGI

Variants of: B1
Assay: one-hybrid fitness for binding NBS DNA (the Noc-binding site; scaled: cognate 1, non-cognate 0); higher = stronger binding
Details: with NBS DNA site
Outline: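 Selection: bacterial one-hybrid in E. coli USO, HIS3 reporter with the site 19 bp from the promoter, 48 hours at 37°C on M9-minus-histidine plus 0.1 mM IPTG and 5 mM 3-AT. Libraries were Caulobacter ParB with four randomised specificity codons, sequenced on Illumina before and after selection. Fitness is the rescaled log change in variant-to-wild-type read ratio, anchored to the cognate and non-cognate sites.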

one-hybrid fitness for binding NBS DNA, 0.685:
QTRY

one-hybrid fitness for binding NBS DNA, 0.265:
QRVM

one-hybrid fitness for binding NBS DNA, ≤ 0.2:
DRAR
RDSI
EYYF
SYYC
TQIT
EKEC
EPER
TTNA
DVPD
PVDR
HERG
TQAE
RIAG
WSDF
HHAL
WKLC
LPLQ
HRID
THCI
WMGR
LQEI
RPGP
HMMK
DISI
IVWC
NFRS
METF
MGLT
YMQR
VDID
YRAT
EIKM
RNGE
TMPN
VRGK
YNWT
LCVL
DDTF
NQLN
MTSL
DTTD
LYLV
GWDC
ELEC
PSAV
LPYM
QRPD
VPTV
VYML
NRAF
ALCA
PRWN
RFAK
MRDC
TQTC
DSMA
ALDG
GLDS
QSIV
CWQR
KSNF
ARTF
KQTS
QCPY
PYKF
TDRP
STDM
MITR
SGLH
PREC
RMMV
GRTR
PCTL

one-hybrid fitness for binding NBS DNA, 0.341:
RQRA

one-hybrid fitness for binding NBS DNA, 0.219:
RHNA
